Laboratory results reported in article PMC6919601, “Identification of Plasmodium dipeptidyl aminopeptidase allosteric inhibitors by high throughput screening” (PLoS ONE, 2019).
In all, about 110,000 compounds went through this assay and about 230 (0.21%) showed an effect of 50% or more. Some of the results follow.

Target: DPAP1 (Plasmodium falciparum, UniProt Q8IIJ9)
Experiment: primary screen, percent inhibition; read by cleavage of a fluorogenic dipeptide substrate; higher = more effect of the substance
Design: species or system P. falciparum D10 trophozoite lysates; single well
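Also: 30 min substrate incubation versus DMSO and 10 µM JCP410 controls.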

Sequence of DPAP1 (Q8IIJ9 whole entry, looked up): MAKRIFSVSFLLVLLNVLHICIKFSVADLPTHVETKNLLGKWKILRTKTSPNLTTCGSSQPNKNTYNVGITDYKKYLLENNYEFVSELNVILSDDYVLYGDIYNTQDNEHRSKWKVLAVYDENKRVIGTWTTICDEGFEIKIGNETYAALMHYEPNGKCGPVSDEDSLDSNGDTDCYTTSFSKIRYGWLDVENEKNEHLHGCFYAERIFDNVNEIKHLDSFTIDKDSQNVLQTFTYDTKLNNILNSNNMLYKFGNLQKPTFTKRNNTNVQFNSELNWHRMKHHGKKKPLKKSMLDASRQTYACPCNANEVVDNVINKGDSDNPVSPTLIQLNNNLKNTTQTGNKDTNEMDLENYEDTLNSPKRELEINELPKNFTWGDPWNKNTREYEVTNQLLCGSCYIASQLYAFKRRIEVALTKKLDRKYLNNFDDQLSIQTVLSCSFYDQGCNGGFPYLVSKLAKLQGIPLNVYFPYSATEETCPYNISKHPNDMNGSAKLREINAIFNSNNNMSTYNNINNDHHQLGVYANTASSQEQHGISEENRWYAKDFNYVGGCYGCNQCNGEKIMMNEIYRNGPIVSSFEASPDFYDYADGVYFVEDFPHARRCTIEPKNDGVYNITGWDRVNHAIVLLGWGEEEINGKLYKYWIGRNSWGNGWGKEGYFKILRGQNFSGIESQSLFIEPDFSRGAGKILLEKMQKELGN

Compared with O=C(O)C1CC=CCC1C(=O)NC1CCCCCCC1 (centres unmarked), COCc1cc(C)nc2sc(C(=O)NC3CCCCC3)c(N)c12 is lower in “% Inhibition @ 10 uM” value: 0.161% for the first, -2.87% for the second.

Compared with COc1ccc(NC(=O)C2COc3ccccc3O2)cc1OC (centres unmarked), O=C(Nc1ccccc1Oc1ccccc1)c1ccc2c(c1)OCO2 is lower in “% Inhibition @ 10 uM” value: 4.37% for the first, -4.33% for the second.

First: CC(=O)N1CCC(NC(Cc2ccccc2)c2ccccc2)CC1 (centres unmarked)
Second: O=C(NCc1ccccc1)C1CCCN1C(=O)OCc1ccccc1 (centres unmarked)
The “% Inhibition @ 10 uM” value of the first is higher: 1.9% for the first, -1.65% for the second.

Compared with CCOc1ccc(/C=c2\sc3nc(-c4ccccc4C)nn3c2=O)cc1OC, C=CCOc1ccc(/C=c2\sc3nc(-c4cc(OC)c(OC)c(OC)c4)nn3c2=O)cc1 is lower in “% Inhibition @ 10 uM” value: 0.561% for the first, -1.18% for the second.

Compared with COc1ccc(C2NC(=O)NC3=C2CCc2ccccc23)cc1 (centres unmarked), COc1ccc(C2C3=C(O)CCCC3=Nc3nc(-c4ccccc4C)nn32)cc1 (centres unmarked) is lower in “% Inhibition @ 10 uM” value: -1.33% for the first, -5.15% for the second.

Going from O=S(=O)(Nc1cc(Cl)cc(Cl)c1)c1ccc(Cl)cc1 to O=S(=O)(NCCc1ccc(Cl)cc1)c1ccc(-c2ccc(O)nn2)s1, the “% Inhibition @ 10 uM” value falls from -1.84% to -1.97%.

First: COc1cc(C2C3=C(O)CC(C)(C)CC3=NC(C)=C2C(=O)Nc2ccc(F)cc2F)ccc1O (centres unmarked)
Second: COc1cccc(NC(=O)C2CC2(c2ccc(C)cc2)c2ccc(C)cc2)c1 (centres unmarked)
The “% Inhibition @ 10 uM” value of the first is higher: -1.86% for the first, -5.47% for the second.

Going from Cc1ccc(C#N)c(SCc2cc3c(cc2Cl)OCO3)n1 to Cc1ccc(CSc2nc(C)cc(C)c2C#N)cc1, the “% Inhibition @ 10 uM” value rises from -8.15% to -0.413%.

Going from CC(C1CC1)N(Cc1ccccc1)C(=O)NC(=O)c1cccc(F)c1 (centres unmarked) to CC(=O)c1c(C(=O)c2ccccc2)sc2ccccc12, the “% Inhibition @ 10 uM” value falls from 2.41% to -7.61%.

Compared with Cc1cc(C)c(NC(=O)CN(c2cc(Cl)ccc2Cl)S(C)(=O)=O)c(C)c1, Cc1cc(C)cc(-n2nnc(-c3nsc(NC(=O)c4cccs4)n3)c2C)c1 is lower in “% Inhibition @ 10 uM” value: 2.43% for the first, -4.14% for the second.

Going from O=C(NCc1ccco1)c1ccc2ccccc2n1 to O=C(Nc1nc2nc(-c3ccccc3)cc(O)n2n1)c1ccco1, the “% Inhibition @ 10 uM” value rises from -1.43% to -1.31%.

Going from COC(=O)c1sccc1S(=O)(=O)N1CCN(Cc2ccccc2)CC1 to Fc1ccccc1N1CCN(Cc2ccc(Br)cc2)CC1, the “% Inhibition @ 10 uM” value rises from -6.31% to 1.38%.

First: Cc1ccc(OCC(=O)Nc2cccc3ccccc23)cc1
Second: COc1cccc(-c2nnc3sc(NC(=O)COc4ccccc4)nn23)c1
The “% Inhibition @ 10 uM” value of the first is lower: -0.95% for the first, 3.64% for the second.

First: COC(=O)c1ccc(/C=C/C(O)=C2/C(=O)N(C)C3(C)CC2c2cc(Br)ccc2O3)cc1 (centres unmarked)
Second: CC(=O)N(Cc1ccco1)C1CC(=O)N(c2ccc(Br)cc2)C1=O (centres unmarked)
The “% Inhibition @ 10 uM” value of the first is higher: 1.91% for the first, 1.34% for the second.

Going from Cc1ccc(Nc2nn(CCC#N)c(=S)n2-c2ccc(C)cc2)cc1 to Cc1ccccc1C(=O)Nc1ccc(-c2cn3ccsc3n2)cc1, the “% Inhibition @ 10 uM” value rises from 0.0345% to 1.37%.

Going from CC(C)(C)c1ccc(C(=O)Nc2sc3c(c2C(=O)NC2CCS(=O)(=O)C2)CCCC3)cc1 (centres unmarked) to O=C(NCCCN1CCc2ccccc2C1)c1csc2c1CCCCC2, the “% Inhibition @ 10 uM” value rises from 1.88% to 8.05%.

Going from OC1CCN(Cc2ccc(F)c(F)c2)CC1 to CCC1CCCCN1Cc1ccc(OC)c(C)c1 (centres unmarked), the “% Inhibition @ 10 uM” value rises from -6.36% to 4.28%.

First: C(=C\c1ccccc1)/CNCCCSc1nnnn1-c1ccccc1
Second: O=C(Cc1ccccc1)n1cnc2ccccc21
The “% Inhibition @ 10 uM” value of the first is lower: -2.88% for the first, 2.14% for the second.

First: Cc1oc2ncn(C)c(=O)c2c1C(=O)N1CCC(Cc2ccccc2)CC1
Second: O=C(Cn1nc(Cc2ccncc2)c2ccccc2c1=O)N1CCN(C(=O)c2ccco2)CC1
The “% Inhibition @ 10 uM” value of the first is lower: -9.84% for the first, -1.21% for the second.

First: Cc1ccccc1Cn1cnc2ccccc21
Second: CCn1c(COc2cccc3cccnc23)nc2ccccc21
The “% Inhibition @ 10 uM” value of the first is lower: 1.8% for the first, 4.94% for the second.

First: CN(C)CCN(C)Cc1c[nH]c2ccccc12
Second: COc1ccc(OC)c(CN(C)CCN(C)C)c1
The “% Inhibition @ 10 uM” value of the first is lower: -3.27% for the first, -2.6% for the second.

First: CSC1=NSC2=NC(=O)/C(=C\c3ccccc3Cl)C(=N)N12
Second: Cc1ccccc1N1C(=O)CC(=O)NC1=S
The “% Inhibition @ 10 uM” value of the first is higher: 5.5% for the first, -0.414% for the second.

Compared with CNC(=O)Cn1c2ccccc2c2cnnc(O)c21, CC(C(=O)NCCN(C)C)n1c2ccccc2c2cnn(C)c(=O)c21 (centres unmarked) is lower in “% Inhibition @ 10 uM” value: 3% for the first, -0.281% for the second.

Compared with CCCOc1ccc(-c2nonc2NC(=O)COc2cccc(C)c2)cc1OCCC, c1ccc(Oc2cc(-c3ccccc3)ncn2)cc1 is higher in “% Inhibition @ 10 uM” value: -3.47% for the first, -2.82% for the second.

First: CCCCCC1CCC(C2CCC(C(=O)O)CC2)CC1 (centres unmarked)
Second: CCOC(=O)N1CCC(N2CCN(S(=O)(=O)c3ccccc3)CC2)CC1
The “% Inhibition @ 10 uM” value of the first is higher: 0.98% for the first, -1.6% for the second.

Going from c1ccc(C2N3CCCN23)cc1 (centres unmarked) to O=C1NCCN/C1=C\C(=O)c1ccccc1, the “% Inhibition @ 10 uM” value falls from -1.08% to -4.35%.

Going from Cc1cc(C)c2ccc(C(=O)O)nc2c1O to Cc1ccc(C2C(C#N)=C(N)Oc3c2c(O)nc2c3sc3nc(C)cc(C)c32)cc1 (centres unmarked), the “% Inhibition @ 10 uM” value rises from -7.35% to -1.84%.

Compared with CCOc1ccccc1N1CCN(Cc2ccc(C(F)(F)F)cc2)CC1, C=CCC(CC=C)(NC(=O)c1ccc(F)cc1)c1ccccc1 is higher in “% Inhibition @ 10 uM” value: 0.847% for the first, 3.34% for the second.

First: Cc1occc1-c1nnc2sc(/C=C/c3ccc(F)cc3)nn12
Second: C(=C\c1cccs1)/C1=NN(c2ccccc2)C(c2cccs2)C1 (centres unmarked)
The “% Inhibition @ 10 uM” value of the first is higher: 3.46% for the first, -9.41% for the second.

First: CCC(C)NC(=O)C(=O)NCCc1ccccc1 (centres unmarked)
Second: Cc1cccn2c(=O)c3cc(C(=O)NCCc4ccccc4)c(=N)n(CCCn4ccnc4)c3nc12
The “% Inhibition @ 10 uM” value of the first is higher: -0.0648% for the first, -1.92% for the second.

Going from CN1CCN(c2ccc([N+](=O)[O-])cc2Cl)CC1 to COc1cccc(C2(O)CCS(=O)CC2CN(C)C)c1 (centres unmarked), the “% Inhibition @ 10 uM” value falls from -2.44% to -4.12%.

Compared with CCCCNc1nc2c(c(=O)n(C)c(=O)n2C)n1C, CCC(C)Sc1nc(O)c(C(C)CC)c(O)n1 (centres unmarked) is lower in “% Inhibition @ 10 uM” value: 1.39% for the first, -5.84% for the second.

Going from CC(C)c1ccc2oc(-c3ccc(N)cc3)nc2c1 to Cc1cc(C)c(Cc2c(C)cc(C)c(/C=N/O)c2C)c(C)c1/C=N/O, the “% Inhibition @ 10 uM” value falls from -0.0925% to -3.38%.

Going from CC(NC(=O)CN1CCOCC1)C1CC1 (centres unmarked) to COC(=O)CCC(=O)c1ccc(Br)s1, the “% Inhibition @ 10 uM” value falls from -1.56% to -3.82%.
